Test results as given in PubChem BioAssay AID602156 (GNF / Scripps Winzeler lab, 2011).
This is one part of the list. Further columns of the screen follow, without active or inactive calls.

Assay: exo-erythrocytic parasite development inhibition – imaging, Malaria Box, P. yoelii, HepG2-A16-CD81EGFP, dose response (AID 602156);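 further: infected cells exposed to compound for 48 hours before fixation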
Details: P. yoelii liver stage in HepG2-A16-CD81EGFP, measured here: liver parasite size at 10 uM

Compound | parasite size
O=[N+]([O-])c1cc(C(F)(F)F)ccc1N1CCCN(C(=S)Nc2ccccc2)CC1 | 93.7 um
CC1(C)N=C(N)N=C(N)N1c1ccc(Oc2ccc(Cl)cc2)c(Cl)c1 | 27.8 um
COc1ccc2c(C)nc(Nc3nc(C)cc(-c4ccccc4)n3)nc2c1 | 170 um
COc1ccc2sc(Nc3nc(-c4ccccn4)cs3)nc2c1 | 28.9 um
Cc1nc([P+](c2ccccc2)(c2ccccc2)c2ccccc2)c(N2CCCCC2)o1 | 25.6 um
Cc1ccc(-n2c(-c3ccccc3)cc(C=NNC(=O)c3cccc(O)c3)c2-c2ccccc2)cc1 | 26.7 um
Cc1ccc2[nH]c(C)c(Br)c(=O)c2c1 | 30 um
O=C(Nc1c2ccccc2nc2ccccc12)c1cc(Cl)ccc1O | 43.5 um
O=C(NC1CC1)c1ccc(CSCc2ccccc2Cl)o1 | 26.1 um
Cc1ccc(-c2c[n+]3c(n2-c2ccccc2)SCC3)cc1 | 62.5 um
CN(C)CCCN(Cc1cc2cc3c(cc2[nH]c1=O)OCO3)C(=S)Nc1cccc(Cl)c1 | 60.2 um
O=C(NC1CC1)C1CCN(c2cccc3c2C(=O)N(Cc2cccc(C(F)(F)F)c2)C3=O)CC1 | 24 um
CCCN(CCC)CCCNc1ccc(C(=O)Nc2ccc(C)c(F)c2)cc1[N+](=O)[O-] | 83.5 um
CCCCNC(=O)C1CCC(CN(Cc2c(Cl)cccc2Cl)S(=O)(=O)c2ccc(Br)cc2)CC1 (stereo not drawn) | 29.6 um
Cc1ccc(-c2c[n+]3c(n2-c2ccc(C)cc2)CCCCC3)cc1 | 27.2 um
OCCNc1nc(Nc2ccccc2)nc2ccccc12 | 62.1 um
CCCCCCCCn1c(C)[n+](C)c2cc(Cl)c(Cl)cc21 | 40.4 um
CCCCN(CC)CCNC(=O)C1c2ccccc2C(=O)N(Cc2ccc(F)cc2)C1c1ccc(OC)cc1 (stereo not drawn) | 63.4 um
Cc1ccc(-n2c(-c3ccccc3)cc(C=NNC(=O)c3cccc(-n4c(C)ccc4C)c3)c2-c2ccccc2)cc1 | 30.1 um
C=CC[N+]1(CC#Cc2cccc3ccccc23)CCCCC1 | 80.1 um
CCNC(=O)C1CCN(c2cccc3c2C(=O)N(C2CCCCCCC2)C3=O)CC1 | 30.5 um
CCOC(=O)C1=C(C)NC2=C(C(=O)C(C(=O)OCC)C(c3ccc(OC)cc3)C2)C1c1ccc(OC)c(OC)c1 (stereo not drawn) | 86.5 um
CCCCC(=O)NC(c1cccc([N+](=O)[O-])c1)c1ccc2cccnc2c1O (stereo not drawn) | 23.7 um
N=c1c2c(n(Cc3ccc(Cl)cc3)c3c1CCC3)CCC2 | 32.6 um
c1ccc(CSc2scnc2[P+](c2ccccc2)(c2ccccc2)c2ccccc2)cc1 | 21.6 um
Cc1ccc2cc(C)c(Nc3ccc(Cl)cc3)nc2c1 | 42.1 um
CC1(C)C2CCC(C2)C1(C)NC(=S)NN=Cc1ccccn1 (stereo not drawn) | 28.3 um

Compound | parasite size
CC[n+]1cc(-c2ccc(C)cc2)sc1C=C1Sc2ccccc2N1C | 37.9 um
CCCCCC[P+](N(CCC)CCC)(N(CCC)CCC)N(CCC)CCC | 30.3 um
O=C1C2=C(Nc3ccccc3SC2c2ccco2)c2ccccc21 (stereo not drawn) | 31.6 um
O=C1c2ccccc2C2=Nc3ccccc3SC(c3ccccc3F)C12 (stereo not drawn) | 28.6 um
CSc1nnc(-c2cccc([N+](=O)[O-])c2)n1Cc1ccccc1 | 97.4 um
COc1ccc2cc3[n+](cc2c1OC)CCc1cc2c(cc1-3)OCO2 | 102 um
CCOC(=O)C1=C(C)NC2=C(C(=O)C(C(=O)OCC)C(c3cccc(OC)c3)C2)C1c1cc(OC)c(OC)c(OC)c1 (stereo not drawn) | 110 um
COc1ccc(Nc2nc(NCc3ccccc3)c3ccccc3n2)cc1 | 30 um
Cc1ccc(N2C(N)=NC(N)=NC2(C)C)cc1 | 35.1 um
O=C(Cc1ccccc1)NC(c1ccc(Cl)cc1)c1ccc2cccnc2c1O (stereo not drawn) | 17.3 um
CCOC(=O)C1=C(C)NC2=C(C(=O)C(C(=O)OCC)C(c3ccccc3OC)C2)C1c1ccc([N+](=O)[O-])cc1 (stereo not drawn) | 76.3 um
CCCCCCCC[n+]1c(C)n(CC)c2cc(C(=O)OCC)ccc21 | 63.8 um
CCOc1ccc(Nc2cc(=O)oc3ccccc23)cc1 | 43.9 um
Cc1[nH]c2ccccc2c(=O)c1Br | 29.4 um
CN(Cc1ccccc1)C(=O)CSc1nc(NCc2ccccc2)c2ccccc2n1 | 67.8 um
CCOC(=O)c1c[nH]c2c3c(ccc2c1=O)CCCC3 | 26.2 um
CCOc1ccc(Nc2nc(NCc3ccco3)c3ccccc3n2)cc1 | 75.8 um
Cc1cc(NC(c2cccc(Br)c2)c2ccc3cccnc3c2O)no1 (stereo not drawn) | 16.3 um
Cc1ccc(Nc2nc3c(N)nnc(N)c3nc2Nc2ccc(C)cc2)cc1 | 50.3 um
CN(C)c1cc[n+](CC(=O)Nc2ccc(Cl)cc2)cc1 | 69.6 um
c1ccc(-c2csc(Nc3nc4cc5c(cc4s3)OCO5)n2)nc1 | 34.4 um
CC(C)NCC(O)Cn1c2ccc(Cl)cc2c2cc(Cl)ccc21 (stereo not drawn) | 88.4 um
O=C(Nc1ccc2oc(-c3cccc4ccccc34)nc2c1)c1ccc([N+](=O)[O-])o1 | 14 um
CC[n+]1c(C=C2C=C(C)OC(C)=C2)sc2ccccc21 | 25.4 um
O=C1C2=C(Nc3ccccc3SC2c2cccs2)c2ccccc21 (stereo not drawn) | 25.9 um
COc1ccc2nc(C)cc(Nc3ccc(Cl)c(Cl)c3)c2c1 | 39.2 um
